The other results are listed elsewhere or left out. The list includes weakly bound sequences.
target: T1, MBP-FoxP3dN (UniProt Q99JB6); assay: PD-seq (MBP pull-down with sequencing); conditions: 20 mM Tris-HCl pH 7.5, 100 mM NaCl, 1.5 mM MgCl2, 0.4 uM protein, 0.1 uM dsDNA library, 30 min, room temperature, amylose pull-down; high values mean tight binding; double strand, one strand shown
T1 sequence: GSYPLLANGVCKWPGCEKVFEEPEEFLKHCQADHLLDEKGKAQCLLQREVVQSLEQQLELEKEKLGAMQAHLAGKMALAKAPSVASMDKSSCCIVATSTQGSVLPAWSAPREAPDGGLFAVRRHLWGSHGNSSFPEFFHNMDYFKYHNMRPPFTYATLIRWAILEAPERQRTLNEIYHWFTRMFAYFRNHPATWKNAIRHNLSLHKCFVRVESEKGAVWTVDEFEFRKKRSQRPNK

Sequence | binding signal (RPM ratio (pull-down/input))
GATGATTGTTCTCCCAGCTGATGAATTCGTTATCTCGAGTAAACAAATTTTCCTAATCTTTCTGTTCAAGCGCCATCTAC | 2.4
GATGATTGTTCTCCCAGCTGATGAATTCATAATCTCGAGTAAACAAATTTTCCTAATCTTTCTGTTCAAGCGCCATCTAC | 0.35
GATGATTGTTCTCCCAGCTGATGAATTCGGGACATCGAGTAAACAAATTTTCCTAATCTTTCTGTTCAAGCGCCATCTAC | 0.428
GATGATTGTTCTCCCAGCTGATGAATTGGAGTCTTCGAGTAAACAAATTTTCCTAATCTTTCTGTTCAAGCGCCATCTAC | 0.433
GATGATTGTTCTCCCAGCTGATGAATTACATGACTCGAGTAAACAAATTTTCCTAATCTTTCTGTTCAAGCGCCATCTAC | 0.445
GATGATTGTTCTCCCAGCTGATGAATTGAGCTCTTCGAGTAAACAAATTTTCCTAATCTTTCTGTTCAAGCGCCATCTAC | 0.468
GATGATTGTTCTCCCAGCTGATGAATTACGAAGTTCGAGTAAACAAATTTTCCTAATCTTTCTGTTCAAGCGCCATCTAC | 0.334
GATGATTGTTCTCCCAGCTGATGAATTCGATTCATCGAGTAAACAAATTTTCCTAATCTTTCTGTTCAAGCGCCATCTAC | 0.736
GATGATTGTTCTCCCAGCTGATGAATTAGATGATTCGAGTAAACAAATTTTCCTAATCTTTCTGTTCAAGCGCCATCTAC | 1.25
GATGATTGTTCTCCCAGCTGATGAATTAAGGTGTTCGAGTAAACAAATTTTCCTAATCTTTCTGTTCAAGCGCCATCTAC | 0.773
GATGATTGTTCTCCCAGCTGATGAATTTTCCGACTCGAGTAAACAAATTTTCCTAATCTTTCTGTTCAAGCGCCATCTAC | 0.237
GATGATTGTTCTCCCAGCTGATGAATTTTTCGTTTCGAGTAAACAAATTTTCCTAATCTTTCTGTTCAAGCGCCATCTAC | 0.335
GATGATTGTTCTCCCAGCTGATGAATTCGTATTGTCGAGTAAACAAATTTTCCTAATCTTTCTGTTCAAGCGCCATCTAC | 2.37
GATGATTGTTCTCCCAGCTGATGAATTCATCGCATCGAGTAAACAAATTTTCCTAATCTTTCTGTTCAAGCGCCATCTAC | 1
GATGATTGTTCTCCCAGCTGATGAATTCTAATTCTCGAGTAAACAAATTTTCCTAATCTTTCTGTTCAAGCGCCATCTAC | 0.493
GATGATTGTTCTCCCAGCTGATGAATTTAACTATTCGAGTAAACAAATTTTCCTAATCTTTCTGTTCAAGCGCCATCTAC | 0.445
GATGATTGTTCTCCCAGCTGATGAATTCGCAACATCGAGTAAACAAATTTTCCTAATCTTTCTGTTCAAGCGCCATCTAC | 3.35
GATGATTGTTCTCCCAGCTGATGAATTGGTGACCTCGAGTAAACAAATTTTCCTAATCTTTCTGTTCAAGCGCCATCTAC | 0.446
GATGATTGTTCTCCCAGCTGATGAATTCAGGCCATCGAGTAAACAAATTTTCCTAATCTTTCTGTTCAAGCGCCATCTAC | 0.932
GATGATTGTTCTCCCAGCTGATGAATTGTACCGTTCGAGTAAACAAATTTTCCTAATCTTTCTGTTCAAGCGCCATCTAC | 0.52
GATGATTGTTCTCCCAGCTGATGAATTCCCACCTTCGAGTAAACAAATTTTCCTAATCTTTCTGTTCAAGCGCCATCTAC | 0.276

Sequence | binding signal (RPM ratio (pull-down/input))
GATGATTGTTCTCCCAGCTGATGAATTTTCGCGCTCGAGTAAACAAATTTTCCTAATCTTTCTGTTCAAGCGCCATCTAC | 0.401
GATGATTGTTCTCCCAGCTGATGAATTGGACCAGTCGAGTAAACAAATTTTCCTAATCTTTCTGTTCAAGCGCCATCTAC | 0.224
GATGATTGTTCTCCCAGCTGATGAATTGAGGCGGTCGAGTAAACAAATTTTCCTAATCTTTCTGTTCAAGCGCCATCTAC | 1
GATGATTGTTCTCCCAGCTGATGAATTAAGCGGGTCGAGTAAACAAATTTTCCTAATCTTTCTGTTCAAGCGCCATCTAC | 0.523
GATGATTGTTCTCCCAGCTGATGAATTTTGGTACTCGAGTAAACAAATTTTCCTAATCTTTCTGTTCAAGCGCCATCTAC | 0.641
GATGATTGTTCTCCCAGCTGATGAATTTTGAAAGTCGAGTAAACAAATTTTCCTAATCTTTCTGTTCAAGCGCCATCTAC | 0.28
GATGATTGTTCTCCCAGCTGATGAATTTCACCCCTCGAGTAAACAAATTTTCCTAATCTTTCTGTTCAAGCGCCATCTAC | 0.332
GATGATTGTTCTCCCAGCTGATGAATTGACCTAATCGAGTAAACAAATTTTCCTAATCTTTCTGTTCAAGCGCCATCTAC | 0.344
GATGATTGTTCTCCCAGCTGATGAATTGAAGTATTCGAGTAAACAAATTTTCCTAATCTTTCTGTTCAAGCGCCATCTAC | 0.94
GATGATTGTTCTCCCAGCTGATGAATTTTGTAACTCGAGTAAACAAATTTTCCTAATCTTTCTGTTCAAGCGCCATCTAC | 3.34
GATGATTGTTCTCCCAGCTGATGAATTATACGGTTCGAGTAAACAAATTTTCCTAATCTTTCTGTTCAAGCGCCATCTAC | 0.434
GATGATTGTTCTCCCAGCTGATGAATTATATAATTCGAGTAAACAAATTTTCCTAATCTTTCTGTTCAAGCGCCATCTAC | 0.565
GATGATTGTTCTCCCAGCTGATGAATTGCGTATCTCGAGTAAACAAATTTTCCTAATCTTTCTGTTCAAGCGCCATCTAC | 4.44
GATGATTGTTCTCCCAGCTGATGAATTGATCGCATCGAGTAAACAAATTTTCCTAATCTTTCTGTTCAAGCGCCATCTAC | 1.04
GATGATTGTTCTCCCAGCTGATGAATTCTAATGCTCGAGTAAACAAATTTTCCTAATCTTTCTGTTCAAGCGCCATCTAC | 0.63
GATGATTGTTCTCCCAGCTGATGAATTCACGGTATCGAGTAAACAAATTTTCCTAATCTTTCTGTTCAAGCGCCATCTAC | 0.478
GATGATTGTTCTCCCAGCTGATGAATTTGTTGGTTCGAGTAAACAAATTTTCCTAATCTTTCTGTTCAAGCGCCATCTAC | 7.67
GATGATTGTTCTCCCAGCTGATGAATTCAATTCGTCGAGTAAACAAATTTTCCTAATCTTTCTGTTCAAGCGCCATCTAC | 0.665
GATGATTGTTCTCCCAGCTGATGAATTGAGCAGCTCGAGTAAACAAATTTTCCTAATCTTTCTGTTCAAGCGCCATCTAC | 1.12
GATGATTGTTCTCCCAGCTGATGAATTATGATAGTCGAGTAAACAAATTTTCCTAATCTTTCTGTTCAAGCGCCATCTAC | 1.14
GATGATTGTTCTCCCAGCTGATGAATTTCCGCGTTCGAGTAAACAAATTTTCCTAATCTTTCTGTTCAAGCGCCATCTAC | 1.45

Sequence | binding signal (RPM ratio (pull-down/input))
GATGATTGTTCTCCCAGCTGATGAATTATCTCACTCGAGTAAACAAATTTTCCTAATCTTTCTGTTCAAGCGCCATCTAC | 0.352
GATGATTGTTCTCCCAGCTGATGAATTATCGGTTTCGAGTAAACAAATTTTCCTAATCTTTCTGTTCAAGCGCCATCTAC | 0.484
GATGATTGTTCTCCCAGCTGATGAATTACTAATATCGAGTAAACAAATTTTCCTAATCTTTCTGTTCAAGCGCCATCTAC | 1.23
GATGATTGTTCTCCCAGCTGATGAATTATAGAAGTCGAGTAAACAAATTTTCCTAATCTTTCTGTTCAAGCGCCATCTAC | 0.268
GATGATTGTTCTCCCAGCTGATGAATTGAAGCACTCGAGTAAACAAATTTTCCTAATCTTTCTGTTCAAGCGCCATCTAC | 0.499
GATGATTGTTCTCCCAGCTGATGAATTTGGTATCTCGAGTAAACAAATTTTCCTAATCTTTCTGTTCAAGCGCCATCTAC | 3.76
GATGATTGTTCTCCCAGCTGATGAATTACTGTATTCGAGTAAACAAATTTTCCTAATCTTTCTGTTCAAGCGCCATCTAC | 1.38
GATGATTGTTCTCCCAGCTGATGAATTACGAGCTTCGAGTAAACAAATTTTCCTAATCTTTCTGTTCAAGCGCCATCTAC | 0.34
GATGATTGTTCTCCCAGCTGATGAATTCATCTCCTCGAGTAAACAAATTTTCCTAATCTTTCTGTTCAAGCGCCATCTAC | 0.354
GATGATTGTTCTCCCAGCTGATGAATTCGCCCTGTCGAGTAAACAAATTTTCCTAATCTTTCTGTTCAAGCGCCATCTAC | 0.301
GATGATTGTTCTCCCAGCTGATGAATTTCACTGTTCGAGTAAACAAATTTTCCTAATCTTTCTGTTCAAGCGCCATCTAC | 0.46
GATGATTGTTCTCCCAGCTGATGAATTCCCTCTGTCGAGTAAACAAATTTTCCTAATCTTTCTGTTCAAGCGCCATCTAC | 0.227
GATGATTGTTCTCCCAGCTGATGAATTGACAGTTTCGAGTAAACAAATTTTCCTAATCTTTCTGTTCAAGCGCCATCTAC | 0.499
GATGATTGTTCTCCCAGCTGATGAATTCGCCAGATCGAGTAAACAAATTTTCCTAATCTTTCTGTTCAAGCGCCATCTAC | 0.213
GATGATTGTTCTCCCAGCTGATGAATTATCCCAGTCGAGTAAACAAATTTTCCTAATCTTTCTGTTCAAGCGCCATCTAC | 0.212
GATGATTGTTCTCCCAGCTGATGAATTAGGTAAATCGAGTAAACAAATTTTCCTAATCTTTCTGTTCAAGCGCCATCTAC | 0.365
GATGATTGTTCTCCCAGCTGATGAATTATCGCCCTCGAGTAAACAAATTTTCCTAATCTTTCTGTTCAAGCGCCATCTAC | 0.578
GATGATTGTTCTCCCAGCTGATGAATTTTCTAAATCGAGTAAACAAATTTTCCTAATCTTTCTGTTCAAGCGCCATCTAC | 0.227
GATGATTGTTCTCCCAGCTGATGAATTAGTCAGGTCGAGTAAACAAATTTTCCTAATCTTTCTGTTCAAGCGCCATCTAC | 0.433
GATGATTGTTCTCCCAGCTGATGAATTGGCGTTTTCGAGTAAACAAATTTTCCTAATCTTTCTGTTCAAGCGCCATCTAC | 1.26
GATGATTGTTCTCCCAGCTGATGAATTCTAACCTTCGAGTAAACAAATTTTCCTAATCTTTCTGTTCAAGCGCCATCTAC | 0.305
